# Laboratory results: the supplement of paper PMC11417369
# ± gives the standard deviation of the averaged measurements. The list shows a part of the results.
# System: PfAP2-G AP2 domain (GST-tagged)
# Test: gcPBM binding intensity (ln(normalized median fluorescence intensity)); higher = stronger DNA binding
# In short: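 Binding of GST-tagged P. falciparum DNA-binding domains, expressed in E. coli and used at about 25 μg on average, was carried out for 1 h in 1× PBS containing 1% milk, 0.2 mg/ml BSA, 0.5% salmon testes DNA and 0.03% Triton X-100. The target was an Agilent 4 × 180k array of primer-extended double-stranded 36-bp intergenic genomic probes plus negative controls, read with Alexa488 anti-GST antibody at 488 nm. Binding intensity is the highest Masliner-normalised natural-log median intensity across replicate spots of either probe orientation.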
row,Sequence,gcPBM binding intensity (ln)
1,TTATCATTTTAATGGTGTACTCAATAAAAACTTTAA [XGTACX_site4595],11.5 ± 1.1
2,AAAAGAAATATTTATACACACACACTAACATATATA [CACACA_site8580],10.09 ± 0.035
3,CTATATTCGTTTAATAGTACATATATAACTAGACAA [XGTACX_site5770],11.1 ± 0.75
4,GTTGGTACCTTACTTTTACACACTTTTTTTTTTTTT [CACACA_site8441],11.1 ± 0.42
5,TATATATATATGTATACACACATACAAATATGTAAA [CACACA_site9238],10.1 ± 0.6
6,TGGTAAAGGAGCAAGATGATAAATCTCCATAACTTT [CACACA_negctrl_site492],9.7 ± 0.13
7,ATGTCTATAATAAGAACACACATATATTTAATTTAA [CACACA_site7394],9.83 ± 0.014
8,GTATTACCTTATTATTGTACTTTCATGATATATATG [XGTACX_site5382],11.2 ± 0.69
9,TTAATGAATGGACACACACACATATATATATATATT [CACACA_site5294],10.7 ± 0.42
10,CATAGATACATACACGCACACACATATATATATATA [CACACA_site13],10.5 ± 0.28
11,TACACAAGAAAATTCACACACACACCCATATATATA [CACACA_site3879],9.95 ± 0.028
12,AACATACATGTATATAGTACATATTACATCTGATAC [XGTACX_site3649],10.9 ± 0.47
13,ATGTAATTATAAGATTAATATACATAATTATATGTA [GTGCAC_negctrl_site458],9.54 ± 0.071
14,TGCTATTTTATTTATTCTTTTATAAAAGTATAATAT [XGTACX_negctrl_site358],10.135 ± 0.007
15,ATTTTTATAGAATGAACACACATATTATAGCATTTA [CACACA_site6842],9.95 ± 0.042
16,CATATAAAAGGACACACACACACATATAAATATGTA [CACACA_site6568],11.2 ± 0.9
17,TAATTTTTTTTTTTTTTTTTTGTACTTCATTTTTAT [CACACA_negctrl_site1395],11.3 ± 1.1
18,AAAAAAAAAAAAAGTACATGCAATATGGATCTTAAA [TGCATGCA_site367],11.4 ± 0.82
19,ATAAAAAAAATTTGCACACCTTCAAAGTAATATATA [CACACA_site1584],10.2 ± 0.18
20,TATGTGTGCAAAAACTGTACACATTAAAGGTATATA [XGTACX_site7627],11.7 ± 1.1
21,ATTATAATGTTAATGTGTACATATGATTCCTTAATT [XGTACX_site181],11.3 ± 0.74
22,TATGTTTTTACATATTGTACATATTCTTGTAATACG [XGTACX_site1179],11.2 ± 0.67

row,Sequence,gcPBM binding intensity (ln)
1,TACTTTCAAAAGATCACACATATATATATATATATA [CACACA_site5630],10.2 ± 0.61
2,TAATAACATACAGACACACACGTAAAAGCACGTGTA [CACACA_site4299],10.14 ± 0.064
3,TATGGTTACATTATATGTACTAAACGAATATTTTTA [XGTACX_site5694],10.9 ± 0.55
4,TATACAAGTATATAGGTGCATATATAAGTATATATT [GTGCAC_site9994],9.84 ± 0.085
5,ATAAATAAATAAGTACATATATATATGTATATATAT [TGCATGCA_negctrl_site223],11.4 ± 1.1
6,ATGACATGTTCTAAATGTACATTTTTTAACCCTTTT [XGTACX_site1858],10.8 ± 0.4
7,AGTAATTTAAGGAATACACACAAGAAAAAAATAAGA [CACACA_site6177],10.3 ± 0.11
8,CATTAAAAGTATAATTGTACTTTTCATTTATATATT [XGTACX_site7536],11.3 ± 0.64
9,ACTACATTATGTCATACATGCATACATACGTGGTTT [TGCATGCA_site732],10.3 ± 0.14
10,AGATTATTTAGAATGTGTACATATTACACATACATG [XGTACX_site8634],11.3 ± 0.81
11,TAATATATATATATATGTACATATATATTATGTATA [XGTACX_site4690],11.2 ± 0.68
12,TTCTCAAAATTAAAATAACAGATTAACGAACTAACG [CACACA_negctrl_site1720],9.91 ± 0.099
13,CATACATACAAACACACACACACACCCATATATATA [CACACA_site2918],10 ± 0.4
14,TTTTTAACCAAACATCAAAACATATTTTTTTGTTAT [CACACA_negctrl_site385],9.93 ± 0.18
15,GTATACCTTTTGACATGTACGTATGTATATTTGGGT [XGTACX_site720],11.5 ± 0.98
16,ATAATATGAGTCCCACAAAATAGACCATACGAATAT [CACACA_negctrl_site50],11 ± 0.59
17,TATAAATTTATACCAGTGCATTTTGAAATATATATA,9.98 ± 0.11
18,AAAAATATTAAAAGGCGTACAATACCTGTATGCAAC [XGTACX_site6069],11.6 ± 1
19,CATGTAAAATATTAAAGTACATGATTATATATATAT [XGTACX_site7486],11.1 ± 0.67
20,TATATATTTTATATATGTACATATTTATATGTTTCT [XGTACX_site1818],11.3 ± 0.82
21,TTTTTTTTTTTTTGAACACACATTATTAACTTTTAT [CACACA_site6281],9.88 ± 0.28
22,CGCGAACATACATACACACACATATATATATATGTA [CACACA_site205],9.99 ± 0.071
